Measurements taken from the supplement of paper PMC10369915.
This is one part of the list. No stated cut-off is given here; in the data, active = 3.2 or more and inactive = the rest. Most of these values are background signal.

B1: JPH2_Y141_Y141H (peptide)
chain: GMRHGHGVRQS
B2: ITK_Y588_V587I (peptide)
chain: ASTHIYQIMNH
B3: ITSN1_Y1132 (peptide)
chain: WFPANYVKLLS
B4: IVD_Y277_L279P (peptide)
chain: ENKGVYVPMSG
B5: ITGB7_Y753_Y753H_YF (peptide)
chain: LSVEIHDRREF
B6: KANK1_Y324 (peptide)
chain: VRKRSYSAGNA
B7: ITGB4_Y1760_T1764S (peptide)
chain: PLQSEYSSIST
B8: ITK_Y198 (peptide)
chain: RRNEEYCLLDS
B9: KCNE3_Y95_R99H (peptide)
chain: DPYHVYIKNHV
B10: JAK2_Y931_Y931C (peptide)
chain: KLIMECLPYGS
B11: KARS1_Y145 (peptide)
chain: GKLIFYDLRGE
B12: ITK_Y336 (peptide)
chain: VTRLRYPVCFG
B13: JMJD7_Y31_A28G (peptide)
chain: PLGVPYLDKPP
B14: JMJD1C_Y596_M591V_YF (peptide)
chain: VEKEKYVSFIS
B15: KAT8_Y90_YF (peptide)
chain: GREEFYVHFVG
B16: JMJD1C_Y596_YF (peptide)
chain: MEKEKYVSFIS
B17: JUP_Y20 (peptide)
chain: EWQQTYTYDSG
B18: ITGB4_Y1760 (peptide)
chain: PLQSEYSSITT
B19: KCNE3_Y95_R99H_YF (peptide)
chain: DPFHVYIKNHV

These binders were tested against SHP2 C-SH2 domain E139D (assay: enrichment score (SH2-bound / input frequency) (ratio); bacterial display of known human phosphotyrosine sites (pTyr-Var adds point mutants) read by sequencing; higher = stronger binding; tyrosines were phosphorylated by kinases first). Settings: peptide library: pTyr-Var.
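Further: displayed peptides selected on beads carrying the immobilized SH2 domain, with library peptides lacking any tyrosine serving as negative controls.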

Enrichment score, inactive:
B1 2.45
B2 2.04
B3 1.44
B4 0.508
B5 1.45
B6 0.27
B7 0.585
B8 0.272
B9 1.03
B10 0.645
B11 1.14
B12 2.19
B13 0.915
B14 0.771
B15 1.4
B16 0.794
B17 0.934
B18 0.555
B19 0.832

The binders below were run against SHP2 C-SH2 domain wild-type in the same assay as above. Settings: peptide library: pTyr-Var.

Enrichment score, inactive:
B1 2.04
B2 1.63
B3 2.44
B4 0.706
B5 1.65
B6 0.306
B7 0.457
B8 0.301
B9 1.01
B10 0.871
B11 0.94
B12 1.94
B13 1
B14 0.721
B15 1.5
B16 0.558
B17 0.746
B18 0.698
B19 0.81

What follows are binders tested against SHP2 N-SH2 domain L43F in the same assay as above. Settings: peptide library: pTyr-Var.

Enrichment score, inactive:
B1 2.2
B2 1.62
B3 1.01
B4 0.65
B5 1.1
B6 0.263
B7 0.645
B8 0.287
B9 0.94
B10 0.566
B11 1.23
B12 1.96
B13 0.942
B14 0.693
B15 1.04
B16 0.851
B17 0.727
B18 0.833
B19 0.663

The binders below were run against SHP2 N-SH2 domain T42A in the same assay as above. Settings: peptide library: pTyr-Var.

Enrichment score, inactive:
B1 2.09
B2 2.03
B3 2.01
B4 0.672
B5 1.31
B6 0.277
B7 0.588
B8 0.101
B9 0.845
B10 0.583
B11 1.13
B12 1.73
B13 0.703
B14 0.943
B15 1.24
B16 0.851
B17 0.767
B18 0.634
B19 0.888

These binders were tested against SHP2 N-SH2 domain T52S in the same assay as above. Settings: peptide library: pTyr-Var.

Enrichment score, inactive:
B1 2.42
B2 1.65
B3 1.38
B4 0.667
B5 1.25
B6 0.222
B7 0.463
B8 0.328
B9 0.873
B10 0.644
B11 1.35
B12 1.77
B13 1.11
B14 0.827
B15 1.17
B16 0.669
B17 0.984
B18 0.611
B19 0.771

The binders below were run against SHP2 N-SH2 domain wild-type in the same assay as above. Settings: peptide library: pTyr-Var.

Enrichment score, inactive:
B1 1.88
B2 1.33
B3 1.15
B4 1.3
B5 1.14
B6 0.729
B7 0.721
B8 0.398
B9 1.06
B10 0.837
B11 1.27
B12 1.99
B13 1.36
B14 0.872
B15 1.23
B16 0.787
B17 0.887
B18 0.66
B19 0.784
